In paper PMC4336329 (PLoS ONE, 2015):
About 14,000 (4.5%) of roughly 310,000 compounds showed an effect of 50% or more. Effects have a minus sign here. The list shows a part of the results.

Each compound was assayed against human ether-à-go-go-related gene (hERG) potassium channel (human, UniProt Q12809) (assay: primary screen, population patch clamp on CHO cells stably expressing hERG).
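Further: peak tail current of the secondary pulse compared with the same well before compound.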

human ether-à-go-go-related gene (hERG) potassium channel, sequence (Q12809 whole entry, looked up): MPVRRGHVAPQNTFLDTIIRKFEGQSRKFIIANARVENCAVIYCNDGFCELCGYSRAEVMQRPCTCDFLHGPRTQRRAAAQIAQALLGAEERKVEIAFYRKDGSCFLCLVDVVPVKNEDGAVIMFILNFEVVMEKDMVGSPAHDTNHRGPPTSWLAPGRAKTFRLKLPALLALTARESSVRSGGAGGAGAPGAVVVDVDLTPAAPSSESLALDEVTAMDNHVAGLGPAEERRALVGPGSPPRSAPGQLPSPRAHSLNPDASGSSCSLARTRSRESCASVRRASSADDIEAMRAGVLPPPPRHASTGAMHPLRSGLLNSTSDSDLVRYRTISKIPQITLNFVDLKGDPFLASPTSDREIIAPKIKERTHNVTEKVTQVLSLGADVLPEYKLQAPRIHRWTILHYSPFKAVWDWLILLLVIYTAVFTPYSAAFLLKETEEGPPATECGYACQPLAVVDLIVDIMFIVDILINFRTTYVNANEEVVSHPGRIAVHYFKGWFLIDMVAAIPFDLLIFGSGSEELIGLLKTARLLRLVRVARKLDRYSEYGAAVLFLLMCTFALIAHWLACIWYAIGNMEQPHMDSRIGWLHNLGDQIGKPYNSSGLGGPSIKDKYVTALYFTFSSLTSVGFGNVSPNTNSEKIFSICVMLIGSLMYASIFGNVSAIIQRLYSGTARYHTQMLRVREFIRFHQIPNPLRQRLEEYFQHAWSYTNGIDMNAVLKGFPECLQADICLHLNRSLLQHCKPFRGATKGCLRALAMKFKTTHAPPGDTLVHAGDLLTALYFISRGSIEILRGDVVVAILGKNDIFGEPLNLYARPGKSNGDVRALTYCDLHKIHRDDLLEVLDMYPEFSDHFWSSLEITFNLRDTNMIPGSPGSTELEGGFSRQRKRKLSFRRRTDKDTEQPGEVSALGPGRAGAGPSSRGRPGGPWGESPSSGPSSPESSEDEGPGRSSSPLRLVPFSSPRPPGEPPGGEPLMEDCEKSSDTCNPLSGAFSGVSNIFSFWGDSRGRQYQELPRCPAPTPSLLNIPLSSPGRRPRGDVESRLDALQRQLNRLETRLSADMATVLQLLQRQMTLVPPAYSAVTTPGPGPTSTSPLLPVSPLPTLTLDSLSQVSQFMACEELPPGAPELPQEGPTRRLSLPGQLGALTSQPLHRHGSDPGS

| Compound | hERG current change (%, negative = inhibition) at 10uM [%] |
| --- | --- |
| CCc1cc2cc(OC)ccc2nc1SCC(=O)NNC(=O)c1ccco1 | 17.9 |
| O=S(=O)(c1cccc2cccnc12)n1cnc2ccccc21 | 0.398 |
| CCCn1c(SCC(=O)NCCc2ccc(Cl)cc2Cl)n[nH]c1=O | 3.12 |
| CCCCNC(=O)C1CCN(Cc2ccc(OCc3ccccc3)c(OC)c2)CC1.O=C(O)C(=O)O | -67.2 |
| O=C(NCC1CCCO1)C(=O)N/N=C/c1c(F)cccc1Cl (stereo not drawn) | 8.04 |
| Cc1ccc(S(=O)(=O)N2CCN(CC(=O)NC(=O)NCc3ccco3)CC2)cc1C | -7.18 |
| CCC1CCCCN1CCCNC(=O)C1CCN(c2ncnc3c2nc2n3CCCCC2)CC1 (stereo not drawn) | -3.01 |
| CN1c2ccccc2C(C)(C)C12C=Nc1c(ccc3ccccc13)O2 (stereo not drawn) | 20.6 |
| CN(C)CCCNc1nc(N)c([N+](=O)[O-])c(NC2CCCCC2)n1 | -44.5 |
| O=C(Nc1ccc(Br)cc1)C1CCN(C(=O)c2ccc(F)cc2)CC1 | -61.9 |
| CN(CC(=O)Nc1cc(S(=O)(=O)N2CCCC2)ccc1Cl)Cc1cccs1 | -16 |
| COc1ccc(OC)c2c(N3CCN(C)CC3)cc(C(F)(F)F)nc12 | 5.62 |
| CN1CCN(CCCNC(=O)c2ccc(Cn3c(=S)[nH]c4ccc(Br)cc4c3=O)cc2)CC1 | 17.4 |
| Clc1ccc(-c2nnc(CNC3CC3)o2)cc1 | -8.92 |
| CC12CCC(=O)N1C(C(=O)NCCN1C(=O)S/C(=C\c3ccc(F)cc3)C1=O)CS2 (stereo not drawn) | -35.2 |
| Cc1ccc(C)c(NC(=O)c2ccc3c(=O)n4c(nc3c2)CCC4)c1 | -25.9 |
| CC(C)c1ccc2[nH]c(O)c(N=NC(=O)c3ccc(CSc4nncn4C)cc3)c2c1 | -6.81 |
| COC(=O)c1ccc(C23CC4(C2)[C@H](CN(Cc2cccnc2)[C@@H]4c2ccccc2)C3c2ccccc2)cc1 (stereo partly drawn) | 12.8 |
| Cn1cnnc1SCC(=O)Nc1ccc2nc(SCc3ccccc3F)sc2c1 | -2.21 |
| CCCC(=O)Nc1nnc(S(=O)(=O)N(CC)c2ccc(OC)cc2)s1 | 19.6 |
| C/C(=N\NC(N)=S)c1ccccc1 | 4.72 |
| CCN(CC)CCCNC(=O)c1oc2ccc3c(c2c1C)C(O)CC(C)(C)O3 (stereo not drawn) | -4.08 |

| Compound | hERG current change (%, negative = inhibition) at 10uM [%] |
| --- | --- |
| CC(=O)c1ccc(-c2ccc([C@H]3[C@H]4C=CC[C@@H](C)[C@@H]4C(=O)N3Cc3ccccc3)c(F)c2)cc1 | 4.91 |
| Cc1onc(-c2ccccc2)c1C(=O)N(C)CCc1ccccn1 | 7.12 |
| CCn1c(O)c(N=NC(=O)CNC(=O)/C=C/c2ccccc2)c2ccccc21 | 2.78 |
| COc1ccc(OC)c(NS(=O)(=O)c2ccc(NC(=O)C3COc4ccccc4O3)cc2)c1 (stereo not drawn) | -5.52 |
| CCC1(C)NC(C(=O)O)Cc2c1[nH]c1ccccc21 (stereo not drawn) | 7.01 |
| CC(=O)C(Sc1nnnn1-c1ccc(O)cc1)c1ccccc1 (stereo not drawn) | -14.3 |
| c1ccc(-c2cnc(-c3ccccc3)nc2)cc1 | 13.4 |
| CCCOC(=O)c1c(N)sc2c1CCC2 | 15.4 |
| Cc1ccc(-c2csc(NCCn3c(-c4ccncc4)nc4ccccc43)n2)cc1 | 9.36 |
| CC(/C=N/NC(=O)c1cccc(F)c1)=C\c1ccccc1 | 13.9 |
| COC(=O)[C@H](C)NC(=O)Nc1cccc(C)c1 | 14.4 |
| CCC(Sc1nc2sc(C(=O)OC)c(C)c2c(=O)n1N)C(=O)N(CC)CC (stereo not drawn) | -1.27 |
| O=C(NC1CCN(S(=O)(=O)c2cccc([N+](=O)[O-])c2)CC1)C1CCCCC1 | 15.3 |
| CC(C)Oc1ncnc2c1[nH]c1ccccc12 | -1.71 |
| Cc1ccc2[nH]cc(CCNS(=O)(=O)c3ccc(F)cc3)c2c1 | -4.39 |
| Cc1cc(NC(=O)CCN2C(=O)/C(=C/c3ccccc3F)SC2=S)no1 | 20.6 |
| Cc1cc(C)cc(NC(=O)COC(=O)CCCC2=NS(=O)(=O)c3ccccc3N2)c1 | -55.9 |
| CCOC(=O)c1cn(-c2ccccc2)nc1-c1ccncc1 | -10.3 |
| CCn1cc(/C=N\NC(=O)Cc2ccc([N+](=O)[O-])cc2)c(C)n1 | -25.1 |
| O=C(N/C=C/c1ccccc1)c1ccccc1 | 15.8 |
| COc1ccc(N=C2C(=Nc3ccc(OC)cc3)N(c3ccccc3)C(=S)N2C(=O)c2ccc(Cl)cc2)cc1 | 1.57 |
| COc1ccccc1-n1c(SCC(=O)NC2CCS(=O)(=O)C2)nc2ccccc2c1=O (stereo not drawn) | -3.39 |

| Compound | hERG current change (%, negative = inhibition) at 10uM [%] |
| --- | --- |
| COc1ccc(NC(=O)COC(=O)CCC(=O)c2cccs2)cc1OC | -9.29 |
| CCN(CC(=O)Nc1c(F)cccc1F)C(=O)C1CCN(S(=O)(=O)c2ccc(C)cc2C)CC1 | -6.91 |
| CC(C)[C@H]1C(=O)O[C@H](C(C)C)C(=O)N(C)[C@@H](C(C)C)C(=O)O[C@H](C(C)C)C(=O)N(C)[C@@H](C(C)C)C(=O)O[C@H](C(C)C)C(=O)N1C | -9.97 |
| Clc1ccc(/C=C/c2nc3ccccc3[nH]2)c(Cl)c1 | -8.14 |
| OC(COc1ccc(CNCCc2ccccc2F)cc1)CN1CCCCC1 (stereo not drawn) | 3.84 |
| COC(=O)c1ccc(CNC(=O)C2CCC(=O)N(CCN3CCOCC3)C2)cc1 (stereo not drawn) | 69.7 |
| CCCn1nc2ccccc2c1P(=N)(N1CCOCC1)N1CCOCC1.Cl | 16 |
| O=C(Cn1nc(C(=O)O)c2ccccc2c1=O)NC12CC3CC(CC(C3)C1)C2 | 6.66 |
| Oc1c(Cl)cc(Cl)c(Cl)c1Cc1c(O)c(Cl)cc(Cl)c1Cl | 27.4 |
| CCC1CCCCN1CCCNC(=O)Cn1ncc2c(C)n(Cc3ccccc3Cl)c(C)c2c1=O (stereo not drawn) | -14.6 |
| CC(C)(C)NC(=O)CSC(=Nc1ccccc1F)NC#N | -0.709 |
| CCn1c(=O)cc(OCC(=O)NCCc2cccc(C)c2)c2ccccc21 | -16.2 |
| CCc1cc2c(s1)N(CC(=O)OC)C(=O)CN=C2c1ccccc1OC | 10.7 |
| Cc1cccc(NC(=S)Nc2cccc3ccccc23)c1 | 15.9 |
| CC1=CS(=O)(=O)CC1SC(=S)N(C)C1CCS(=O)(=O)C1 (stereo not drawn) | 21.3 |
| CC(C)(C)c1ccc(C(=O)CSc2nc3ccccc3c(=O)[nH]2)cc1 | -4.73 |
| CCCCOC(=O)CNc1n[nH]c(=S)[nH]c1=O | 9.69 |
| Cc1ccc(S(=O)(=O)NCC(=O)N2CCN(c3ccccc3F)CC2)cc1 | -27.3 |
| CCSc1nnc(NC(=O)c2c(C)noc2C)s1 | 6.43 |
| CSc1nc2ccccc2n1Cc1cccc(F)c1 | -14.4 |
| CCN1C(=O)c2ccccc2Sc2ccc(C(=O)NCCCN3CCOCC3)cc21 | -17.8 |
| CSc1ccc(NC(N)=S)cc1 | 17.5 |

| Compound | hERG current change (%, negative = inhibition) at 10uM [%] |
| --- | --- |
| CC(=O)OC1CCC2(/C=N/O)C(=CCC3C4CCC(=O)C4(C)CCC32)C1 (stereo not drawn) | -7.92 |
| CCCc1nnc(SCC(=O)Nc2ccc(OCC)cc2)n1N | -3.79 |
| COC(=O)c1cn(C(=O)c2cccc3ccccc23)c2ccccc12 | 17.2 |
| Cc1ccc(CNC(=O)CCS(=O)(=O)c2cc3c(cc2Cl)NC(=O)CO3)o1 | -24.5 |
| Cn1c(/C(C#N)=C/Nc2ccccn2)nc2ccccc21 | 2.84 |
| COc1ccc(S(=O)(=O)N2CCOCC2)cc1C(=O)NCC(c1ccco1)N1CCCC1 (stereo not drawn) | 3 |
| COc1ccccc1/C=C/C(=O)NCC(=O)N/N=C/c1ccc(C(=O)O)cc1 | 26.4 |
| NS(=O)(=O)c1cccc(NC(=O)c2cncc(Br)c2)c1 | 17.5 |
| CCCOC(=O)C(=O)NNc1ccccc1 | 24.2 |
| Cc1cc(NC(=O)CS(=O)(=O)c2cn(Cc3cccc(F)c3)c3ccccc23)no1 | -11.9 |
| CC(=O)c1ccc(NC(=O)C[n+]2cccc(C)c2)cc1.[Cl-] | -2.87 |
| COc1ccc(/C=C2/SC(=S)N(Cc3ccccc3)C2=O)cc1O | 18.4 |
| Cc1cc(C(=O)CC#N)c(C)n1-c1ccc(OC(F)F)cc1 | -21.5 |
| O=C(Cn1ccc(NC(=O)OCc2ccccc2)nc1=O)NCc1ccc2c(c1)OCO2 | 24.3 |
| O=S(=O)(c1cnc(Cl)c(Cl)c1)N1CCc2ccccc21 | 11.7 |
| O=C(NC(=S)Nn1cnnc1)c1ccccc1Cl | 19.2 |
| Cc1onc(-c2ccccc2Cl)c1C(=O)N/N=C(\N)COc1ccc(Cl)cc1 | -3.36 |
| COc1ccc(NC(=O)Nc2ccc(C)cc2OC(F)F)cc1OC | 11.5 |
| CCC(C)(C)NC(=O)CN(Cc1cccs1)C(=O)CNS(=O)(=O)c1ccc(F)cc1 | 4.42 |
| COc1ccccc1NS(=O)(=O)c1cc(NC(C)=O)ccc1N1CCCCC1 | 6.08 |
| NC(=O)C[n+]1cccc(C(=O)Nc2ccccc2)c1.[I-] | 17 |
